# The campaign covered roughly 52,000 compounds. About 1,700 (3.3%) were called active. Cut-off read from the data, not from the text of the source: active = survival mostly below about 52% (no sharp cut-off); inactive = mostly above about 56%. This is one part of the list.
# Test system: Wild type
# Experiment: S. aureus survival, RN4220 and DeltatarO strains – OD600, teichoic acid synthesis inhibitors, primary screen (AID 463173)
# Details: S. aureus RN4220 wild type/DeltatarO growth, OD600, 18 h, hits give low values, screened at 18.75 µg/mL (by protocol)
row,SMILES,survival
1,COC(=O)c1cccc(CN2C(=O)SC(Nc3ccc(Br)cc3)C2=O)c1 (stereo not drawn),inactive: 50%
2,CSc1cccc(NC(=O)C(c2ccccc2)N2Cc3ccccc3C2=O)c1 (stereo not drawn),inactive: 75%
3,Cc1ccc(NC(=O)CSc2nc3ccc(NC(=O)c4ccco4)cc3s2)c(C)c1,inactive: 63%
4,CNC(=O)c1c(NC(=O)c2ccc(S(=O)(=O)N3CCCC(C)C3)cc2)sc2c1CCC2 (stereo not drawn),inactive: 101%
5,CCCCOc1ccc(C(=O)Nc2onc3c2CCCC3)cc1,inactive: 85%
6,COC(=O)C1CCN(C(c2ccccc2Cl)c2sc3nc(-c4ccco4)nn3c2O)CC1 (stereo not drawn),inactive: 80%
7,Cn1cc(CCC(=O)O)c2ccccc21,inactive: 117%
8,Cc1ccc(NC(=O)C2CCCN(S(=O)(=O)c3ccc(F)cc3)C2)cc1 (stereo not drawn),inactive: 79%
9,Cc1cc(C)cc(NC(=O)Nc2cccs2)c1,inactive: 46%
10,CCOC(=O)CN1C(C(=O)c2ccccc2)=C(OC(=O)c2ccccc2)c2ccccc2S1(=O)=O,inactive: 89%
11,CC(=O)Oc1ccc2oc(=O)sc2c1,inactive: 56%
12,O=c1nc2cc3[nH]c4c(=O)c5ccccc5c4[nH]c3cc2n1,inactive: 104%
13,CC(C)N1CC=C2C(C1)C(c1ccccc1Cl)C(C#N)=C(N)C2(C#N)C#N (stereo not drawn),inactive: 108%
14,CCOC(=O)c1cccc(NC(=O)c2ccc3snnc3c2)c1,inactive: 84%
15,COc1ccccc1N1CCN(C(=O)C2CCCN(S(=O)(=O)c3ccc4c(c3)oc(=O)n4C)C2)CC1 (stereo not drawn),inactive: 84%
16,Cc1ccc(C)c(NC(=O)Cn2cnc3nc4c(cc3c2=O)CCCC4)c1,inactive: 72%
17,Cc1ccc(Nc2nc(N)nc(N)c2S(=O)(=O)c2ccccc2)cc1,inactive: 66%
18,COC(=O)c1sccc1S(=O)(=O)N(CC(=O)NCc1ccccc1)c1ccc(C)cc1,inactive: 78%
19,O=C(NC1CCCCC1)C(c1ccco1)N(C(=O)C1COc2ccccc2O1)c1cccc(F)c1 (stereo not drawn),inactive: 132%
20,CCc1ccc(-n2c(N3CCN(c4cccc(C)c4C)CC3)nc3ccccc3c2=O)cc1,inactive: 81%
21,COCCNC(=O)CSc1nnc(NC(=O)Nc2ccc(C)cc2)s1,inactive: 88%
22,Cc1nc2ccn(Cc3cccnc3)c(=O)c2cc1C(=O)N1CCN(c2ccccc2)CC1,inactive: 79%

row,SMILES,survival
1,COc1ccccc1C(=O)Nc1nc(-c2ccc(Br)cc2)ns1,inactive: 114%
2,CC(=O)Nc1ccccc1-c1nc2ccccc2n(C(C)C(=O)c2ccc(C)c(C)c2)c1=O (stereo not drawn),inactive: 117%
3,CCN(c1ccccc1)S(=O)(=O)c1nnc(NC(=O)COc2ccccc2F)s1,inactive: 50%
4,CCOc1ccc(CC(=O)NC2CC(=O)N(c3ccc4c(c3)OCCO4)C2)cc1 (stereo not drawn),inactive: 94%
5,COc1ccc(-c2[nH]ncc2C(=O)NCc2ccccc2OC)cc1,inactive: 80%
6,Cc1ccc(Nc2cc(-c3ccccc3)nc(C)n2)cc1,inactive: 37%
7,COc1cc(C2C(=O)N(C3CCC(C)CC3)CC(=O)N2CCc2ccc(Cl)cc2)ccc1OC(C)C (stereo not drawn),inactive: 82%
8,Cc1ccc(NC(=O)CN(C)S(=O)(=O)c2cccc3nsnc23)c(C)c1,inactive: 74%
9,COc1ccc(CNC(=O)C(=O)NCC(c2cccnc2)N2CCN(c3ccccc3F)CC2)cc1 (stereo not drawn),inactive: 97%
10,CC1CN(C)C(C)c2c1oc1ccc(N)cc21 (stereo not drawn),inactive: 106%
11,CC(=O)Nc1ccc(S(=O)(=O)Nc2ccc3c(c2)n(C)c(=O)n3C)c(C)c1,inactive: 84%
12,Cc1cc(C)n(-c2nc3cc(Cl)c(Cl)cc3nc2Nc2c(C)cccc2C)n1,inactive: 87%
13,Cc1cccc2cc(C(c3nnnn3Cc3ccccc3)N3CCN(C(=O)c4ccco4)CC3)c(=O)[nH]c12 (stereo not drawn),inactive: 123%
14,Cc1noc(C)c1S(=O)(=O)NCCc1csc2nc(-c3ccc(F)cc3)nn12,inactive: 72%
15,Cc1ccc(NC(=O)[C@H](Cc2ccccc2)N2Cc3ccccc3C2=O)cc1,inactive: 86%
16,CCSC1=NC2(CCN(C(=O)NC3CCCCC3)CC2)N=C1c1ccc(C)c(C)c1,inactive: 74%
17,CCc1cccc(NC(=O)c2ccc3c(=O)n4nc(Nc5ccccc5OC)sc4nc3c2)c1,inactive: 91%
18,COc1nc(Oc2ccc(=O)n(-c3ccccc3)n2)nc(N(C)C)n1,inactive: 77%
19,COc1ccc(C(=O)NN=C2CCCC2)cc1,inactive: 102%
20,COc1ccc(OC)c(NC(=O)CCc2c(C)nc3c(-c4ccccc4)c(C)nn3c2C)c1,inactive: 73%
21,CCCN(CCC)CCNC(=O)c1cc(Sc2ccc(Cl)cc2)nc2ccccc12,inactive: 133%
22,CCOC(=O)c1c(NC(=O)c2cc3ccccc3c(=O)o2)sc2c1CCCC2,inactive: 65%

row,SMILES,survival
1,Cc1cccc(CSCCNC(=O)CN(c2ccccc2)S(=O)(=O)N(C)C)c1,inactive: 119%
2,Cc1ccc(S(=O)(=O)c2cn(CC(=O)Nc3ccc4c(c3)OCO4)c3ccc(F)cc3c2=O)cc1,inactive: 76%
3,CC1(C)Cc2ccccc2-c2nnc(SCC(N)=O)n21,inactive: 105%
4,O=C(CSc1ncn[nH]1)NCCOc1ccccc1,inactive: 108%
5,Cc1cccc(Nc2nc3ccccc3n3c(N)nnc23)c1,inactive: 119%
6,CCc1c(C)nc2cc(-c3ccccc3)[nH]n2c1=O,inactive: 106%
7,Cc1cc2n(n1)CCCN2C(=O)Nc1cccc(C)c1C,inactive: 89%
8,Cc1ccc(Cn2c(=O)c3cccnc3n(Cc3ccc(F)cc3)c2=O)cc1,inactive: 98%
9,COc1cccc(N2CCN(c3ncc4c(n3)CCN(Cc3ccc(Br)cc3)C4)CC2)c1,inactive: 55%
10,Cc1ccc(OC(C)C(=O)NCC2(N3CCOCC3)CCCCC2)cc1C (stereo not drawn),inactive: 86%
11,Cc1c(C(=O)N(C)C)sc2c1c(=O)n(-c1ccc(F)cc1)c(=O)n2CC(=O)N(C)c1ccccc1,inactive: 75%
12,COc1ccccc1CNC(=O)CCC1N=C2c3ccccc3N=C(SCC(=O)NCCc3ccccc3)N2C1=O (stereo not drawn),inactive: 129%
13,Cc1cccc(CNC(=O)c2ccc(Cn3c(SCc4ccccc4)nc4cccnc43)cc2)c1,inactive: 83%
14,CCc1ccc2oc(C(=O)Nc3nc(-c4ccccc4)ns3)c(C)c2c1,inactive: 71%
15,CCOc1ccc(-n2c(SC(C)C(=O)OC)nc3c([nH]c4ccccc43)c2=O)cc1 (stereo not drawn),active: -2%
16,COc1ccc(Cl)cc1NC(=O)c1nc(S(C)(=O)=O)ncc1N(Cc1ccc(C)cc1)Cc1ccco1,inactive: 116%
17,Cc1cc2oc(C(=O)Nc3ccc(S(=O)(=O)Nc4onc(C)c4C)cc3)cc(=O)c2cc1C,inactive: 89%
18,Cc1ccc(C)c(NC(=O)Cn2c(=O)oc3cc(S(=O)(=O)NCc4ccccc4)ccc32)c1,inactive: 85%
19,CCOC(=O)c1c(NC(=O)/C=C/c2ccc(OC)cc2)sc2c1CCC(C)C2 (stereo not drawn),inactive: 31%
20,O=C(CSc1nc(=O)[nH]c2c1CCCC2)NCc1ccc(Cl)cc1,inactive: 73%
21,CCN(CCCNC(=O)c1cc2c(=O)[nH]c3ccc(C)cc3c2s1)Cc1ccccc1,inactive: 77%
22,Cc1ccccc1C(=O)Nc1sc2c(c1C(=O)N1CCC(C)CC1)CCCC2,inactive: 64%

row,SMILES,survival
1,Cc1cc(C)c2[nH]c(=O)c(C(c3nnnn3CC3CCCO3)N3CCN(c4ccccc4F)CC3)cc2c1 (stereo not drawn),inactive: 113%
2,CCOC(=O)c1c(NC(=O)c2ccc(S(=O)(=O)N(C)C)cc2)sc2c1CCN(C)C2,inactive: 63%
3,CCCCSCCCNC(=O)c1cc(-c2cccnc2)nc2ccc(S(=O)(=O)N3CCC(C)CC3)cc12,inactive: 89%
4,COc1ccc(NC(=O)Cn2c(=O)n(CC3CCCO3)c(=O)c3ccccc32)cc1 (stereo not drawn),inactive: 87%
5,CCCCCCNc1ncnc2c1sc1nc(N3CCOCC3)c3c(c12)CCCC3,inactive: 77%
6,Cc1oc2ccc(O)c(CN3CCN(Cc4ccccc4)CC3)c2c1C(=O)Nc1cccc(Cl)c1C,inactive: 81%
7,CCCN(C(=O)c1nn(-c2ccc(C)cc2)c(=O)c2c1c1ccccc1n2C)c1ccccc1C,inactive: 88%
8,O=C(Nc1cccc(C(=O)N2CCN(c3ccc(F)cc3)CC2)c1)c1nsc2ccccc12,inactive: 92%
9,O=C(Nc1ccc(Oc2ccccc2)cc1)C1CCN(S(=O)(=O)c2ccccc2)CC1,inactive: 74%
10,CC(=O)c1ccc(N2CCN(C(=O)Cn3ncc4c3-c3ccccc3OC4)CC2)cc1,inactive: 75%
11,COc1ccccc1/C=C/c1nc(C#N)c(NC(C)c2ccccc2)o1 (stereo not drawn),inactive: 76%
12,CCOc1ccc(NC(=O)c2cnn3c(C(F)F)cc(-c4ccc(C)cc4)nc23)cc1,inactive: 67%
13,Cc1c(Cl)cccc1NC(=O)CN1C(=O)CSc2ccc(S(=O)(=O)N3CCCC3)cc21,inactive: 108%
14,Cc1[nH]c2ccc(-c3nnc(SCc4ccc(C(=O)O)cc4)o3)cc2c1C,inactive: 91%
15,CC(=O)c1cc(-c2ccc(F)cc2)n(CCC(=O)NCc2ccc(C)cc2)c1C,inactive: 72%
16,Cc1ccccc1CCNCc1c(C(=O)O)c(C)n(Cc2c(F)cccc2Cl)c1C,inactive: 83%
17,Cc1ccc(NC(=O)CN2CCN(C3CCCCC3)C(=O)C2=O)cc1,inactive: 89%
18,CCc1ccc(Sc2cc(C(=O)NCCCN3CCCC(C)C3)c3ccccc3n2)cc1 (stereo not drawn),inactive: 71%
19,Cc1ccc(-n2ncc(C(=O)N3CCN(C4CCCCC4)CC3)c2C2CCN(C(=O)OC(C)(C)C)CC2)cc1,inactive: 84%
20,O=c1cc(COc2cccc(C(F)(F)F)c2)nc2sc3c(n12)CCCC3,inactive: 89%
21,CC(C)NC(=O)c1nn(C)c2c1CS(=O)(=O)c1ccccc1-2,inactive: 80%
22,COC(=O)c1cc(Cl)ccc1NC(=O)Cn1c(C)cc(C)c(C#N)c1=O,inactive: 93%

# From PubChem BioAssay AID463173 (ICCB-Longwood Screening Facility, Harvard Medical School, 2010)
